Laboratory results taken from publication PMC12215968.
Certain results were filed several times, with different values. Only these are listed. An entry can have further records. Some protein pairs were linked at several places, one record each.

The substances below were run against CCT3 (UniProt P49368) (assay: cross-linking mass spectrometry). Conditions: TSTO, in cells.
Chain of UniProt P49368 (P49368 whole entry): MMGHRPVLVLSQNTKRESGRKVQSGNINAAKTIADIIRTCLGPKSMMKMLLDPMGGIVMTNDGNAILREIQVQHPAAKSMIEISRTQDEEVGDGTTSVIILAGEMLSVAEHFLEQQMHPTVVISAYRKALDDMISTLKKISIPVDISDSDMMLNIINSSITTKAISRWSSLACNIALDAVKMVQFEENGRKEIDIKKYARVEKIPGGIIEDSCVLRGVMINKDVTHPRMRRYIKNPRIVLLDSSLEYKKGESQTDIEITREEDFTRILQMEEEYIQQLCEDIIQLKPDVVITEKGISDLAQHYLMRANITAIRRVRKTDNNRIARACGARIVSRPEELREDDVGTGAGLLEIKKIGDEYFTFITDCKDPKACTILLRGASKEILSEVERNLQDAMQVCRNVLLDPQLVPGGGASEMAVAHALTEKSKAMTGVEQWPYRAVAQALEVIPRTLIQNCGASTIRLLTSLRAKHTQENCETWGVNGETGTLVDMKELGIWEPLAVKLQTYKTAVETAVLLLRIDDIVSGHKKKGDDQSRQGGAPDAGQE

Chain of PDCD5 (O14737 whole entry): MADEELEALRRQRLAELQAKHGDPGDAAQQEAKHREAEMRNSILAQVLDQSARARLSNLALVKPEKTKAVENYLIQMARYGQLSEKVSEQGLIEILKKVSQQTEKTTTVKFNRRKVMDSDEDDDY
Chain of CCT6A (P40227 whole entry): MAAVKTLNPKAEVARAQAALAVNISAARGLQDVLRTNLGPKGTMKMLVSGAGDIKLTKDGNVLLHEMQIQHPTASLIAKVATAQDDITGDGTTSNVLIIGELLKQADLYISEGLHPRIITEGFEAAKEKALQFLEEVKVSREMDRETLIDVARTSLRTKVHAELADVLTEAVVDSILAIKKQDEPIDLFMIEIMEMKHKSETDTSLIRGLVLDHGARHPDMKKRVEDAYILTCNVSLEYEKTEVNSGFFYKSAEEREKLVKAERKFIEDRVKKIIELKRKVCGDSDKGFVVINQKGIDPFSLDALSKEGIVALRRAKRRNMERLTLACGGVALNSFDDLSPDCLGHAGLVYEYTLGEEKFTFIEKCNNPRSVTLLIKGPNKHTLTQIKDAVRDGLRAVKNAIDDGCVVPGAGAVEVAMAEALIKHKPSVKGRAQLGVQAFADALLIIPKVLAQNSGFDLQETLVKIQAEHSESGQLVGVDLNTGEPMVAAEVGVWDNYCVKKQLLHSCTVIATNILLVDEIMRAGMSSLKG
Chain of TCP1 (P17987 whole entry): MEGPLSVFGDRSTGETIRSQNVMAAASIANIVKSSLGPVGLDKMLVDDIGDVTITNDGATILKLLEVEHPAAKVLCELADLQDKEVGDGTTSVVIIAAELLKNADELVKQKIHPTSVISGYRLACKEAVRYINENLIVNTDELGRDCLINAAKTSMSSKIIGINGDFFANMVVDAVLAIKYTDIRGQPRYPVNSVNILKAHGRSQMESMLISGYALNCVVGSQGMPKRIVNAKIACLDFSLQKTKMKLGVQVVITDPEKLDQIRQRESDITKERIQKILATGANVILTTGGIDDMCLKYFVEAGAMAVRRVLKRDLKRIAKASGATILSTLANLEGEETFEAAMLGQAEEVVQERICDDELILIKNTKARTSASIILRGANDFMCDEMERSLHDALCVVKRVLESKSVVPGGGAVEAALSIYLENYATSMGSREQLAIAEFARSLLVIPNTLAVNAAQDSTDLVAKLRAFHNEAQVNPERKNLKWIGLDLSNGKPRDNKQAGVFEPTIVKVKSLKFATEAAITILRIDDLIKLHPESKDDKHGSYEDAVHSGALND

Question: With TCP1, P17987 as the substance, how does the cross-linked residues read?
Answer: Its cross-linked residues is “K199 - K138 and K532 - K527 and K532 - K529”.

Question: Which cross-linked residues does the source give for CCT6A, P40227 here?
Answer: The cross-linked residues was “K10 - K15 and K10 - K21 and K10 - K78 and K530 - K15 and K530 - K78”.

Question: How did the cross-linked residues turn out when PDCD5, O14737 was run?
Answer: The cross-linked residues was “K66 - K527 and K66 - K529 and K97 - K529 and K98 - K527 and K98 - K529 and K105 - K527 and K105 - K529”.
